The source of these data is the RNAGym collection of RNA variant scans (doi:10.1073/pnas.2313332121).

B1: TPR 5TU (parent)
chain: GGAUCUUCUCGAUCUAACAAAAAAGACAAAUCUGCCACAAAGCUUGAGAGCAUCUUCGGAUGCAGAGGCGGCAGCCUUCGGUGGCGCGAUAGCGCCAACGUUCUCAACUAUGACACGCAAAACGCGUGCUCCGUUGAAUGGAGUUUAUCAUG

Variants at the floor of the assay are shown more often than the library holds them.

The data set covers variants of B1. The data set is described as follows: polymerase ribozyme fitness, log enrichment relative to wild type (log ratio); higher = more active; in vitro selection for triplet polymerase activity. In short, it runs like this: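 Each subunit of a heterodimeric triplet polymerase ribozyme was mutagenized into a library by PCR, transcribed, and subjected to one round of in vitro selection, run in triplicate. Libraries were annealed with a biotinylated primer, the partner subunit and triplets, incubated frozen at −7 °C, and extended constructs were gel-excised, captured on streptavidin beads and recovered by RT-PCR. Input and output libraries were sequenced on Illumina, keeping genotypes with ≥10 input reads and ≥1 read per output. Fitness is log base 2 of genotype enrichment divided by wild-type enrichment, from inverse-variance-weighted replicate averages.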
Regarding C32U C54A G59A A91G C93A C96U A113G U135G A147C, the “polymerase ribozyme fitness (log ratio)” value is no more than -4.2.
Consider U33A U55A C105U, for which the “polymerase ribozyme fitness (log ratio)” value is no more than -4.2.
U33A C85U: the “polymerase ribozyme fitness (log ratio)” value was -3.79.
The value for C32G C85G was no more than -4.2.
As for U31A C69A C95A C116G, the “polymerase ribozyme fitness (log ratio)” value was -2.
Under U31G U148C stands -2.37; under U31A G42U G48A C54U C69A A142U U145A, no more than -4.2.
Under C32G U53A G68U C76G U130A C132U G136A A142U stands no more than -4.2; under U33G G48U C72U U90G C99A A138C G141A, no more than -4.2; under C32G G59C G67A C85A G112U, no more than -4.2.
The value for U31C C63G G83A C96U was 1.61; that for U31A A41C U61A G128U A138U was no more than -4.2; that for U31G G74A G86A G126U was no more than -4.2.
On to U33C A49C C57U U145A U151A, for which the “polymerase ribozyme fitness (log ratio)” value is no more than -4.2.
As for G34A G42U G58C C72U G84U, the “polymerase ribozyme fitness (log ratio)” value was no more than -4.2.
Regarding U33G G48C U53A C93U C149U, the “polymerase ribozyme fitness (log ratio)” value was no more than -4.2.
The value for C32U C87G C93U U151G was no more than -4.2.
Regarding U31G C54A C95A A142U, the “polymerase ribozyme fitness (log ratio)” value was -3.34.
Consider U31G G65A, for which the “polymerase ribozyme fitness (log ratio)” value was -1.83.
For C32U C75U G88A A115C, the “polymerase ribozyme fitness (log ratio)” value is no more than -4.2.
With C32G C93U C99G G117C A137G U144G, the “polymerase ribozyme fitness (log ratio)” value was no more than -4.2.
Under U31C U56A G88A C95A C149U stands no more than -4.2; under U31G C43U U55A A89U C95U C99A U104C, no more than -4.2.
Take U33C C57U C105G A107G U145G: the “polymerase ribozyme fitness (log ratio)” value was no more than -4.2.
For the variant U31A C32G A60G G81A U90G, the “polymerase ribozyme fitness (log ratio)” value is no more than -4.2.
Under U31G A39C C85U U90C C105A stands no more than -4.2.
Under U31C G34C G94U G126U U145A stands no more than -4.2; under U31C C57G C87U U102A G136A, -0.199; under U33G G50A G126A C132G U144G, no more than -4.2.
Turning to C32A C69A C72G G81A A91C G141A, the “polymerase ribozyme fitness (log ratio)” value is no more than -4.2.
U33A G92A A138C: the “polymerase ribozyme fitness (log ratio)” value was no more than -4.2.
As for C32A C38U G128C U135A, the “polymerase ribozyme fitness (log ratio)” value is no more than -4.2.
The value for U31C U82G C95A U151G was no more than -4.2; that for U31G C36U A66G C69G A98G A107G was no more than -4.2.
Take A30U G94A: the “polymerase ribozyme fitness (log ratio)” value was -3.7.
The value for C32A A49U G68U C79G C85U U127G was no more than -4.2.
Under U33C A97U C125G stands no more than -4.2; under C32G U55G C93A C103G, no more than -4.2; under U31C A37C A106U A107C, no more than -4.2.
As for U33G G62U C69U C103A G126C, the “polymerase ribozyme fitness (log ratio)” value was no more than -4.2.
As to U31C G81U C93G A113U G126A, the “polymerase ribozyme fitness (log ratio)” value is no more than -4.2.
In the case of U31A G81U G83A C85G A91G C103U U104A U109G C118U C123U G124A G143A, the “polymerase ribozyme fitness (log ratio)” value was no more than -4.2.
Under C32G U77C C85A C131A stands no more than -4.2; under U33C G59U C85U G124A A137U G140C, no more than -4.2; under A30U G50C U56A A66C G141A, no more than -4.2.
C32G C85G U90G C118A G133U G140C C149G: the “polymerase ribozyme fitness (log ratio)” value is no more than -4.2.
For U31A U44A G59A C63A C75G C87A C132A, the “polymerase ribozyme fitness (log ratio)” value was no more than -4.2.
Under G34A A49C C95U G140U G141A stands no more than -4.2; under U33A A41C G71C U82G A91U C131G, no more than -4.2; under U33G A66C C95U, no more than -4.2.
U31G A52C U111G C114U A147G: the “polymerase ribozyme fitness (log ratio)” value is no more than -4.2.
Under U33G A52U stands no more than -4.2; under U33C C51A C85U U134A, no more than -4.2; under U33C C63U C99U A142G, no more than -4.2.
The value for U31C C54A C69A G94A A115U U148A U151G was no more than -4.2; that for C32U A119C C149G was no more than -4.2.
Under U31C C43U G92C stands no more than -4.2; under C32G A52U C99U A106G G124U C131A, no more than -4.2; under G34A A39G G71C C87A C99U C118U, no more than -4.2.
U33C A49C U53A G84U G88C C93G U134A: the “polymerase ribozyme fitness (log ratio)” value was no more than -4.2.
The value for U31A G42C U55G C118G A120C was no more than -4.2; that for A30U U61A U77A A98G C116U A120C was no more than -4.2.
The value for C32G C38U A49G C69A C75G G88C C103A A106G A138U was no more than -4.2.
Under U33A G58A G86A C116G U127G stands no more than -4.2; under U31C A60C G92A C99A, no more than -4.2.
For U33A G74A, the “polymerase ribozyme fitness (log ratio)” value was no more than -4.2.
In the case of U31G U55A A91G C95G U102G G133A U144A A147U, the “polymerase ribozyme fitness (log ratio)” value was no more than -4.2.
The value for C32G C76U G88C C96A C103U U127G C129A U139A A142U was no more than -4.2; that for U31A A73U C95G was -3.66; that for C32G A89U C96A A106C U139A was no more than -4.2.
The value for U33G G59A C75G G141C was no more than -4.2; that for C32U C38U C93G A122G G126C U145A was no more than -4.2.
The value for U33C G50A A121C A142G was no more than -4.2; that for U31A G88A U90A G133A was no more than -4.2; that for U31A C57U G70A C87G A98G A113C C116G was no more than -4.2.
Consider C32U U53A G84U A120G G128U A142U, for which the “polymerase ribozyme fitness (log ratio)” value is no more than -4.2.
Under U31A A47C U56A C87U stands -0.397; under U31C U44A C54A C76G C95G C105G A107G, -4.01.
For the variant U33C A41U C57U G70C G83A A119C, the “polymerase ribozyme fitness (log ratio)” value is no more than -4.2.
Under C32G C57G U78G C87U A106G stands no more than -4.2; under U33G U53A C95A A122C G133U U139A A150U, no more than -4.2; under C32G C75A G84A U127C C132U, no more than -4.2.
Under A30U U44A C51A C85U U101A G117U G133U stands no more than -4.2; under G34A A37C C43U C125G U130A C149A, no more than -4.2.
